# Experimental data reported in paper PMC6602471.
# Some of the results follow. At the low end of the ranking the order means little.
# Target: T1, ELK1 (UniProt P19419)
# T1 sequence: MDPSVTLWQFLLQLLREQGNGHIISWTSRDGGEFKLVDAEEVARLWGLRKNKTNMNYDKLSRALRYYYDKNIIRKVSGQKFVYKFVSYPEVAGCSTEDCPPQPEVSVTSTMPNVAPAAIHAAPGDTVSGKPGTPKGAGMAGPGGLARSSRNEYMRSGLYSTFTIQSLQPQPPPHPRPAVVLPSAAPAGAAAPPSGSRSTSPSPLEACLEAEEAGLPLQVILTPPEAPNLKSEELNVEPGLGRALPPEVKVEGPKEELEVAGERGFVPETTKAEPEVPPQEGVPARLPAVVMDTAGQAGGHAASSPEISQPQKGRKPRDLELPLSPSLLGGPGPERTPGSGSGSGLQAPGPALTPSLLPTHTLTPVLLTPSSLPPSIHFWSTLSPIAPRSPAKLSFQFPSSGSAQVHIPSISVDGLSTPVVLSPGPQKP
# Assay: custom PBM
# Conditions: custom protein-binding microarray; buffer, salt, pH and temperature not stated; high values mean tight binding; double strand, one strand shown
row,Sequence,binding signal (log fluorescence intensity)
1,GTGTATAGGCTCCCATCCAACACACGTGTTAAAATGGTCTTGATTCGCTTGACGCTGCTG,8.75
2,TACTGACTTATATGTGCGAATGCACATGAATAGACCGTCTTGATTCGCTTGACGCTGCTG,8.89
3,GTGTATAGGATCCCATCCAACACACGTGTAAAAATGGTCTTGATTCGCTTGACGCTGCTG,8.87
4,TCCGGCTACCAGCTCCACCCACTTCAGGCCTCGTAGGTCTTGATTCGCTTGACGCTGCTG,8.87
5,CACAATTTTTACAGTAATGTTGCACGCGTAACTCCTGTCTTGATTCGCTTGACGCTGCTG,8.7
6,TAAAGGGAAGACGGTTGTGGGAGTTCCGGGTATTAAGTCTTGATTCGCTTGACGCTGCTG,11
7,GGGTATAGGATCCCATCCAACACACGTGTTAAAATGGTCTTGATTCGCTTGACGCTGCTG,8.93
8,GGAAAAAGGCCCAGGGTAACACCGGAAGAGGGCTTAGTCTTGATTCGCTTGACGCTGCTG,10.2
9,TGTCGGGTAAGGGAAGGTAGATCACGTGAATGAAAAGTCTTGATTCGCTTGACGCTGCTG,8.89
10,TGTCGGGTAAGGGAATGTAGAACACGTGAATGAAAAGTCTTGATTCGCTTGACGCTGCTG,8.96
11,GATTAATTTCTGCCCTTATTCGCACGTGCCATAACGGTCTTGATTCGCTTGACGCTGCTG,8.95
12,CGGAAGTGTCGTAAACGTCGGATATCCGCTTCTTCTGTCTTGATTCGCTTGACGCTGCTG,11.5
13,CTGGGACTTGACACAACTCTGCCACGTGGGTCGTTTGTCTTGATTCGCTTGACGCTGCTG,8.99
14,TGTCGGGTGAGGGAATGTAGATCACGTGAATGAAAAGTCTTGATTCGCTTGACGCTGCTG,9
15,GGAAAAAGGCCCAGGGTAAGACCGGAAGTGGGCTTAGTCTTGATTCGCTTGACGCTGCTG,10.9
16,GGAAAAAGGCCCAGGGTAACACCGGAAGTGGGCTTTGTCTTGATTCGCTTGACGCTGCTG,11.3
17,TCCGGCTACCAGCTCCACCCACTTCAGGCCTTGTACGTCTTGATTCGCTTGACGCTGCTG,8.77
18,TGTCGGATAAGGGAATGTAGATCACGTGAATGAAAAGTCTTGATTCGCTTGACGCTGCTG,8.81
19,TGTCGGGTAAGGGAATGTAGATCAGGTGAATGAAAAGTCTTGATTCGCTTGACGCTGCTG,8.98
20,CGGAAGTGTCGTAAACGTCCGATATCCGGTTCTTCTGTCTTGATTCGCTTGACGCTGCTG,12.3
21,CAGCATAGGACTTCTTTCCTGAAGCAATTGATAACCGTCTTGATTCGCTTGACGCTGCTG,8.97

row,Sequence,binding signal (log fluorescence intensity)
1,GCTGCTGCGGTGCATACCCCACCGGATGTGGCCCCGGTCTTGATTCGCTTGACGCTGCTG,10.2
2,TACTGACTTATATATGCGAATGCACTTGAATAGACCGTCTTGATTCGCTTGACGCTGCTG,8.94
3,GCTGCTGCGGTGCATACCCCACCGGATGTGACCCCAGTCTTGATTCGCTTGACGCTGCTG,10.3
4,TGTCGGGTAAGGGAATGTAGATCACGTGATTGAAAAGTCTTGATTCGCTTGACGCTGCTG,8.86
5,GATTAATTTCTGCCCTTATTCGCACGTGGCATAACAGTCTTGATTCGCTTGACGCTGCTG,9.09
6,GCTGCTGCGGTGCATACCCCACCGGATGTCACCCCGGTCTTGATTCGCTTGACGCTGCTG,10.1
7,CAGCATAGGACTTCTTCCGTGAAGCAATTGATAACCGTCTTGATTCGCTTGACGCTGCTG,10.8
8,CACAATTTTAACAGTAATGTAGCACGCGTAACTCCTGTCTTGATTCGCTTGACGCTGCTG,8.9
9,CTGGGACTTGACCCAACTCAGCCACGTGGGTCGTTTGTCTTGATTCGCTTGACGCTGCTG,8.78
10,CACAATGTTTACAGTAATGTAGCACGCGTAACTCCTGTCTTGATTCGCTTGACGCTGCTG,9
11,GATTAATTGCTGCCCTTATTCGCACGTGCCATAACAGTCTTGATTCGCTTGACGCTGCTG,8.88
12,AACAATTTTTACAGTAATGTAGCACGCGTAACTCCTGTCTTGATTCGCTTGACGCTGCTG,8.92
13,GGCAAAAGGCCCAGGGTAACACCGGAAGTGGGCTTAGTCTTGATTCGCTTGACGCTGCTG,10.6
14,CGGAAGAGTCGTAAACGTCGGATATCCGGTTCTTCTGTCTTGATTCGCTTGACGCTGCTG,12.3
15,TAAAGGGAAGACGGTTGTGGTAGGTCCGGGTATTAAGTCTTGATTCGCTTGACGCTGCTG,8.98
16,TGTCGGGTAAGCGAATGTAGATCACGTGAATGAAAAGTCTTGATTCGCTTGACGCTGCTG,9
17,GCTGCTGCGGTCCATACCCCACCGGATGTGACCCCGGTCTTGATTCGCTTGACGCTGCTG,10.3
18,TATTGACTTATATATGCGAATGCACATGAATAGACCGTCTTGATTCGCTTGACGCTGCTG,8.8
19,CAGCATAGGACTGCTTCCCTGAAGCAATTGATAACCGTCTTGATTCGCTTGACGCTGCTG,8.86
20,CTGGGACTTGACCCAACTCTGCCACGTGGGTCCTTTGTCTTGATTCGCTTGACGCTGCTG,8.82
21,TACTAACTTATATATGCGAATGCACATGAATAGACCGTCTTGATTCGCTTGACGCTGCTG,8.93

row,Sequence,binding signal (log fluorescence intensity)
1,TACTGACTTATATATGCGAATTCACATGAATAGACCGTCTTGATTCGCTTGACGCTGCTG,8.87
2,GATTAATTTCTGCCCTTATTCGCCCGTGCCATAACAGTCTTGATTCGCTTGACGCTGCTG,8.71
3,CAAAGGGAAGACGGTTGTGGTAGTTCCGGGTATTAAGTCTTGATTCGCTTGACGCTGCTG,11.3
4,GAGCATAGGACTTCTTCCCTGAAGCAATTGATAACCGTCTTGATTCGCTTGACGCTGCTG,8.98
5,TCCGGCTACCAGCTCCACCGACTTCAGGCCTTGTAGGTCTTGATTCGCTTGACGCTGCTG,8.85
6,GATTCATTTCTGCCCTTATTCGCACGTGCCATAACAGTCTTGATTCGCTTGACGCTGCTG,8.97
7,GTTTATAGGATCCCATCCAACACACGTGTTAAAATGGTCTTGATTCGCTTGACGCTGCTG,8.93
8,CACAATTTTTGCAGTAATGTAGCACGCGTAACTCCTGTCTTGATTCGCTTGACGCTGCTG,8.85
9,GTGCATAGGATCCCATCCAACACACGTGTTAAAATGGTCTTGATTCGCTTGACGCTGCTG,9
10,GGAAAAAGGCCTAGGGTAACACCGGAAGTGGGCTTAGTCTTGATTCGCTTGACGCTGCTG,10.9
11,TGTCGGGTAAGGGAATGTAGATCACGTGAATGAAAGGTCTTGATTCGCTTGACGCTGCTG,8.8
12,GTGTATAGGATCCCATCGAACACACGTGTTAAAATGGTCTTGATTCGCTTGACGCTGCTG,8.89
13,TCCGGCTACCAGCACCACCCACTTCAGGCCTTGTAGGTCTTGATTCGCTTGACGCTGCTG,8.9
14,GATTAATTTCTGCCCATATTCGCACGTGCCATAACAGTCTTGATTCGCTTGACGCTGCTG,8.82
15,GCTGCTGCGGTGCATACCCCACCGGCTGTGACCCCGGTCTTGATTCGCTTGACGCTGCTG,9.02
16,TGTCGGGTAAGGGAATCTAGATCACGTGAATGAAAAGTCTTGATTCGCTTGACGCTGCTG,8.95
17,GATTAATTTCTGCCCTTATTCGCACGGGCCATAACAGTCTTGATTCGCTTGACGCTGCTG,8.84
18,CGGAAGTGTCGTAAACGTTGGATATCCGGTTCTTCTGTCTTGATTCGCTTGACGCTGCTG,11.4
19,GCTGCTGCGGTGCCTACCCCACCGGATGTGACCCCGGTCTTGATTCGCTTGACGCTGCTG,10.3
20,CAGCATATGACTTCTTCCCTGAAGCAATTGATAACCGTCTTGATTCGCTTGACGCTGCTG,8.83
21,CACAATTTTTACAGTAATGTAGCACGCGTAACTGCTGTCTTGATTCGCTTGACGCTGCTG,8.98

row,Sequence,binding signal (log fluorescence intensity)
1,GATTAATTTCTGCCCTTAGTCGCACGTGCCATAACAGTCTTGATTCGCTTGACGCTGCTG,8.96
2,CACAATTTTTACAGTAATGTAGCACGCGTAACTACTGTCTTGATTCGCTTGACGCTGCTG,8.82
3,TGTCGGGTAAGGGAATGTAGATCACGTGAATGAACAGTCTTGATTCGCTTGACGCTGCTG,8.99
4,GCTGCTGCGGTGCATAGCCCACCGGATGTGACCCCGGTCTTGATTCGCTTGACGCTGCTG,10.4
5,CTGGGACTTGACCTAACTCTGCCACGTGGGTCGTTTGTCTTGATTCGCTTGACGCTGCTG,8.92
6,CCTGCTGCGGTGCATACCCCACCGGATGTGACCCCGGTCTTGATTCGCTTGACGCTGCTG,10.2
7,CGGAAGTGTTGTAAACGTCGGATATCCGGTTCTTCTGTCTTGATTCGCTTGACGCTGCTG,12
8,TACTGACTTATATATGCTAATGCACATGAATAGACCGTCTTGATTCGCTTGACGCTGCTG,8.92
9,GCAGCTGCGGTGCATACCCCACCGGATGTGACCCCGGTCTTGATTCGCTTGACGCTGCTG,10.1
10,TGTCGGGTAAGGGAATGTAGATTACGTGAATGAAAAGTCTTGATTCGCTTGACGCTGCTG,8.82
11,GATTAATTTCTGCCCTTATTCGCATGTGCCATAACAGTCTTGATTCGCTTGACGCTGCTG,8.8
12,TCCGGCTACCAGCTCCACCCACTTCCGGCCTTGTAGGTCTTGATTCGCTTGACGCTGCTG,12.3
13,GGAAACAGGCCCAGGGTAACACCGGAAGTGGGCTTAGTCTTGATTCGCTTGACGCTGCTG,10.7
14,GGAAAATGGCCCAGGGTAACACCGGAAGTGGGCTTAGTCTTGATTCGCTTGACGCTGCTG,11
15,CAGCATAGGACTTATTCCCTGAAGCAATTGATAACCGTCTTGATTCGCTTGACGCTGCTG,8.93
16,TGTCGGGTAAGGAAATGTAGATCACGTGAATGAAAAGTCTTGATTCGCTTGACGCTGCTG,8.91
17,CTGGGACTTGACCCAACTATGCCACGTGGGTCGTTTGTCTTGATTCGCTTGACGCTGCTG,8.89
18,GATTAATTTCTGCCCTTATTAGCACGTGCCATAACAGTCTTGATTCGCTTGACGCTGCTG,8.82
